# Reference: a collection of fitness landscapes (doi:10.1126/science.1257360)
# The other results are listed elsewhere or left out.
# B1: PhoQ; a variant is named by its letters at X, in order, P23837 (parent)
# chain: MKKLLRLFFPLSLRVRFLLATAAVVLVLSLAYGMVALIGYSVSFDKTTFRLLRGESNLFYTLAKWENNKLHVELPENIDKQSPTMTLIYDENGQLLWAQRDVPWLMKMIQPDWLKSNGFHEIEADVNDTSLLLSGDHSIQQQLQEVREDDDDAEMTHSVAVNVYPATSRMPKLTIVVVDTIPVELKSSYMVWSWFIYVLSANLLLVIPLLWVAAWWSLRPIEALAKEVRELEEHNRELLNPATTRELTSLVRNLNRLLKSERERYDKYRTTLTDLTHSLKTPLXXLQXXLRSLRSEKMSVSDAEPVMLEQISRISQQIGYYLHRASMRGGTLLSRELHPVAPLLDNLTSALNKVYQRKGVNISLDISPEISFVGEQNDFVEVMGNVLDNACKYCLEFVEISARQTDEHLYIVVEDDGPGIPLSKREVIFDRGQRVDTLRPGQGVGLAVAREITEQYEGKIVAGESMLGGARMEVIFGRQHSAPKDE
# Variants of: B1
# Assay: enrichment ratio after two sorts for PhoP signalling (ratio (wild type AVST 3.29)); higher = more functional
# Settings: with PhoP (E. coli)
row,Variant,enrichment ratio
1,NYFT,≤ 0.25
2,HHCK,≤ 0.25
3,NRKD,≤ 0.25
4,NWPE,≤ 0.25
5,ERLD,≤ 0.25
6,FHNC,≤ 0.25
7,SPAT,≤ 0.25
8,VAMA,≤ 0.25
9,SFGG,≤ 0.25
10,EYWT,≤ 0.25
11,AGHP,≤ 0.25
12,YYAV,≤ 0.25
13,PYLK,≤ 0.25
14,SDNF,≤ 0.25
15,EAMN,≤ 0.25
16,HHSY,≤ 0.25
17,LITL,≤ 0.25
18,YRNW,≤ 0.25
19,VHMV,≤ 0.25
20,HNNI,≤ 0.25
21,ANMH,4.13

row,Variant,enrichment ratio
1,TMKP,≤ 0.25
2,VYVI,≤ 0.25
3,TVLD,≤ 0.25
4,QRYV,≤ 0.25
5,EPSA,≤ 0.25
6,HNHC,≤ 0.25
7,RMTK,≤ 0.25
8,APII,≤ 0.25
9,CLLL,≤ 0.25
10,IRPQ,≤ 0.25
11,EGIR,≤ 0.25
12,AVCG,16
13,KIKI,≤ 0.25
14,NRTA,≤ 0.25
15,TYLK,≤ 0.25
16,TGQG,15.7
17,QWFH,≤ 0.25
18,DYDC,≤ 0.25
19,QGRV,≤ 0.25
20,NGHA,≤ 0.25
21,NAYL,≤ 0.25

row,Variant,enrichment ratio
1,MRVM,≤ 0.25
2,VAVQ,≤ 0.25
3,IITA,≤ 0.25
4,KHYK,≤ 0.25
5,GHSG,≤ 0.25
6,PLFF,≤ 0.25
7,EHVH,≤ 0.25
8,MPEL,≤ 0.25
9,YVCD,≤ 0.25
10,IGPH,≤ 0.25
11,FGPR,≤ 0.25
12,VDMI,≤ 0.25
13,FKAK,≤ 0.25
14,RPIM,≤ 0.25
15,HSLC,0.563
16,DRPD,≤ 0.25
17,SDMP,≤ 0.25
18,YFPC,≤ 0.25
19,HHQY,≤ 0.25
20,DICN,≤ 0.25
21,ITGF,≤ 0.25

row,Variant,enrichment ratio
1,PPRK,≤ 0.25
2,VENQ,≤ 0.25
3,AITG,11.5
4,WTDF,≤ 0.25
5,PIIL,≤ 0.25
6,FRSF,≤ 0.25
7,IPNW,≤ 0.25
8,TTRC,≤ 0.25
9,DCIG,≤ 0.25
10,IIWQ,≤ 0.25
11,RIQS,≤ 0.25
12,DAFV,≤ 0.25
13,GAGM,0.739
14,GHHE,≤ 0.25
15,AMYG,≤ 0.25
16,DSST,≤ 0.25
17,APNI,≤ 0.25
18,VEHA,≤ 0.25
19,TLVH,≤ 0.25
20,CMHL,9.84
21,AWWF,≤ 0.25
